Changes are numbered by the printed parent chain. These are yes or no findings as the source states them, for the method shown. For some of these results: Binding seen in cells or lysates may run through a third protein. Some binding calls cover weakened binding; strength is not graded here. Tags and fused reporters may be left off the sequences shown. Each block holds one binder with its values, some of them ahead of it.
Tests used:
[1] = biological target: T1, HOS5-FLAG expressed in tobacco (N. benthamiana) leaves (Arabidopsis) (UniProt Q8W4B1); assay: co-IP; HOS5-FLAG with RS40-Myc or RS41-Myc expressed in pairs in N. benthamiana leaves; precipitated with anti-FLAG M2 beads (normal IgG as control), blot with anti-Myc
T1 sequence: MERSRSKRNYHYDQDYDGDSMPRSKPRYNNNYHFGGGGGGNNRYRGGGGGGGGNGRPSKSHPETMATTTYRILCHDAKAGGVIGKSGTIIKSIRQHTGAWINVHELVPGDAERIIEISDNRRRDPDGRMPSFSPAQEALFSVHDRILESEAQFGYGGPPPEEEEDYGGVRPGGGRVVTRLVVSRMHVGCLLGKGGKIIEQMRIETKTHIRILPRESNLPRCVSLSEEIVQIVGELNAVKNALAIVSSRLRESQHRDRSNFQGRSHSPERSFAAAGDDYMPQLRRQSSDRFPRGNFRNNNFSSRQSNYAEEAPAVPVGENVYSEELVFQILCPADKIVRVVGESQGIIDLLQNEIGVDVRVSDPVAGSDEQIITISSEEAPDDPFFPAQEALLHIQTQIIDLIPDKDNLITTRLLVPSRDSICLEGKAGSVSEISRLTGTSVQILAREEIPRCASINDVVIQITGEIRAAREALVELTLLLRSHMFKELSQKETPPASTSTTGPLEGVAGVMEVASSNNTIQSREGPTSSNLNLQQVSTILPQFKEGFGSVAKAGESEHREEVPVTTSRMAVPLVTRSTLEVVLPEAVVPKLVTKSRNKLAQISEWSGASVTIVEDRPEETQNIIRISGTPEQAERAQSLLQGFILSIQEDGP

[2] = biological target: T2, HOS5 fused to EYFP-N or EYFP-C (BiFC) (Arabidopsis) (UniProt Q8W4B1); assay: split reporter; BiFC with EYFP-N and EYFP-C fusions in Arabidopsis protoplasts
T2 sequence: T1 sequence

[3] = biological target: T3, RS40 fused to EYFP-N or EYFP-C (BiFC) (Arabidopsis) (UniProt P92965); assay: as above
T3 sequence: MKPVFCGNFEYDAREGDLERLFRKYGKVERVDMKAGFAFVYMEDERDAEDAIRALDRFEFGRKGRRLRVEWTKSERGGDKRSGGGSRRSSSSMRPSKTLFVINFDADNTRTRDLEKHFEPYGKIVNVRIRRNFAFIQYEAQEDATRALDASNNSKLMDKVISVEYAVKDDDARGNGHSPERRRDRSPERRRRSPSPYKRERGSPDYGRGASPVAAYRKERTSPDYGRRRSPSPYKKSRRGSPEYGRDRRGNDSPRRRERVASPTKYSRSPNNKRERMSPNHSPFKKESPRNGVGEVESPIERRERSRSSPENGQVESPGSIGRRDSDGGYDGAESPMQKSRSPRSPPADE

[4] = biological target: T4, RS41 fused to EYFP-N or EYFP-C (BiFC) (Arabidopsis) (UniProt P92966); assay: as above
T4 sequence: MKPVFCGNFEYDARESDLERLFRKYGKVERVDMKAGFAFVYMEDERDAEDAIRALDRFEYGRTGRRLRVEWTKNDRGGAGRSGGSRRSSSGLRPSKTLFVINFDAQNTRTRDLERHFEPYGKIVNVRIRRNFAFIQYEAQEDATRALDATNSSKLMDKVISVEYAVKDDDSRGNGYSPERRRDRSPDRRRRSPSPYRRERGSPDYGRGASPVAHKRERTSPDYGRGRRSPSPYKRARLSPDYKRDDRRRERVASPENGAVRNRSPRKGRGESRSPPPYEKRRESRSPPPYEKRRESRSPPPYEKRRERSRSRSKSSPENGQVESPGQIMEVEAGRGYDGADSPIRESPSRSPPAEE

[5] = biological target: T5, HOS5 (High Osmotic Stress Gene Expression 5), full length, yeast two-hybrid fusion (Arabidopsis) (UniProt Q8W4B1); assay: two-hybrid; pairwise in yeast strain AH109: HOS5 in pBD (pGBK), FRY2 in pAD (pGAD); deletion constructs and hos5-1 against the full-length partner; growth on -TLHA medium plus X-alpha-Gal, -TL as transformation control
T5 sequence: T1 sequence

- binding [1]: binds
B1: RS41-Myc expressed in tobacco (N. benthamiana) leaves (protein, UniProt P92966 1-356)
chain: T4 sequence

- binding [2]: binds
B2: RS41 fused to EYFP-N or EYFP-C (BiFC) (protein, UniProt P92966 1-356)
chain: T4 sequence

- binding [5]: binds
B4: hos5-1 mutant HOS5 (Gly233 to Ser), yeast two-hybrid fusion (protein, UniProt Q8W4B1 1-652)
chain: T1 sequence with G233S

The next lines start with the binder.

B3: FRY2 fused to EYFP-N or EYFP-C (BiFC) (protein, UniProt Q5YDB6 1-967)
chain: MYSNNRVEVFHGDGRLGELEIYPSRELNQQQDDVMKQRKKKQREVMELAKMGIRISHFSQSGERCPPLAILTTISSCGLCFKLEASPSPAQESLSLFYSSCLRDNKTAVMLLGGEELHLVAMYSENIKNDRPCFWAFSVAPGIYDSCLVMLNLRCLGIVFDLDETLVVANTMRSFEDKIDGFQRRINNEMDPQRLAVIVAEMKRYQDDKNLLKQYIESDQVVENGEVIKVQSEIVPALSDNHQPLVRPLIRLQEKNIILTRINPMIRDTSVLVRMRPSWEELRSYLTAKGRKRFEVYVCTMAERDYALEMWRLLDPEGNLINTNDLLARIVCVKSGFKKSLFNVFLDGTCHPKMALVIDDRLKVWDEKDQPRVHVVPAFAPYYSPQAEAAATPVLCVARNVACGVRGGFFRDFDDSLLPRIAEISYENDAEDIPSPPDVSHYLVSEDDTSGLNGNKDPLSFDGMADTEVERRLKEAISASSAVLPAANIDPRIAAPVQFPMASASSVSVPVPVQVVQQAIQPSAMAFPSIPFQQPQQPTSIAKHLVPSEPSLQSSPAREEGEVPESELDPDTRRRLLILQHGQDTRDPAPSEPSFPQRPPVQAPPSHVQSRNGWFPVEEEMDPAQIRRAVSKEYPLDSEMIHMEKHRPRHPSFFSKIDNSTQSDRMLHENRRPPKESLRRDEQLRSNNNLPDSHPFYGEDASWNQSSSRNSDLDFLPERSVSATETSADVLHGIAIKCGAKVEYKPSLVSSTDLRFSVEAWLSNQKIGEGIGKSRREALHKAAEASIQNLADGYMRANGDPGPSHRDATPFTNENISMGNANALNNQPFARDETALPVSSRPTDPRLEGSMRHTGSITALRELCASEGLEMAFQSQRQLPSDMVHRDELHAQVEIDGRVVGEGVGSTWDEARMQAAERALSSVRSMLGQPLHKRQGSPRSFGGMSNKRLKPDFQRSLQRMPSSGRYS
- binding [3]: binds
- binding [2]: binds
- binding [4]: binds

B5: HOS5 fused to EYFP-N or EYFP-C (BiFC) (protein, UniProt Q8W4B1 1-652)
chain: T1 sequence
- binding [2]: binds

B6: RS40-Myc expressed in tobacco (N. benthamiana) leaves (protein, UniProt P92965 1-350)
chain: T3 sequence
- binding [1]: binds

B7: RS40 fused to EYFP-N or EYFP-C (BiFC) (protein, UniProt P92965 1-350)
chain: T3 sequence
- binding [2]: binds
- binding [4]: binds

Reference: paper PMC3798263
